The values below come from paper PMC4336329 (PLoS ONE, 2015).

Molecules are shown by their SMILES. About 14,000 (4.5%) of roughly 310,000 compounds showed an effect of 50% or more. Effects have a minus sign here. This is one part of the list.
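Note: peak tail current of the secondary pulse compared with the same well before compound.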

human ether-à-go-go-related gene (hERG) potassium channel, sequence (Q12809 whole entry, looked up): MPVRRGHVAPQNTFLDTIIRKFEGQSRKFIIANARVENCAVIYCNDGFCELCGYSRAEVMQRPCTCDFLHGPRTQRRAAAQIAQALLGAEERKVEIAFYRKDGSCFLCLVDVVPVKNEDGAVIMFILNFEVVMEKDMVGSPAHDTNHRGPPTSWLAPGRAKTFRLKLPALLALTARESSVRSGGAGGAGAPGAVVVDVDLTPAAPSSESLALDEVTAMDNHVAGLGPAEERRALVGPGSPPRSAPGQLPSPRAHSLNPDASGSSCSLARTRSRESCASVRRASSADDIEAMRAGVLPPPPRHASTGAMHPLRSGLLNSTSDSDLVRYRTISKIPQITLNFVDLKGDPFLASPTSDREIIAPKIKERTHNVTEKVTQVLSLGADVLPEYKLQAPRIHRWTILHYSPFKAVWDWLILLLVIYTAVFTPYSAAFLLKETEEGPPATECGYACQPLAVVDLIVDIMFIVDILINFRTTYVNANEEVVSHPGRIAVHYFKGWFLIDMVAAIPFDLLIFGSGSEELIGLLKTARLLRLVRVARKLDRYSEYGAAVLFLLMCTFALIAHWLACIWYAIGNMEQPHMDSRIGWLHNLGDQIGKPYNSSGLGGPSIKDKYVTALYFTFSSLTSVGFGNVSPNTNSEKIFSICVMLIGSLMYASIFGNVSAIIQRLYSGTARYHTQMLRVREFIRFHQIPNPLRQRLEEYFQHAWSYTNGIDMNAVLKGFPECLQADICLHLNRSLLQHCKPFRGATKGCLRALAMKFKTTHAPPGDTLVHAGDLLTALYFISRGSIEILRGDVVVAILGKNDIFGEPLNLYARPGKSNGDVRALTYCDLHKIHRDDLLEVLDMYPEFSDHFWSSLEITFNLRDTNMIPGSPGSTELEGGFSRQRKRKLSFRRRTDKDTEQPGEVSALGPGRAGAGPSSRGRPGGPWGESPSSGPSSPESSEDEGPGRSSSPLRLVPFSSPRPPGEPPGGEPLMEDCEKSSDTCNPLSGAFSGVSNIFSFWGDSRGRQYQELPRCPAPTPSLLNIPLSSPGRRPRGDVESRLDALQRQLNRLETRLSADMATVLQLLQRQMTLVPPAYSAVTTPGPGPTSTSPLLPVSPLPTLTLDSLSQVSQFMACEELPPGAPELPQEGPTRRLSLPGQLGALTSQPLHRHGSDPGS

The experiment addresses human ether-à-go-go-related gene (hERG) potassium channel (human, UniProt Q12809). Put plainly: primary screen, population patch clamp on CHO cells stably expressing hERG.
For `O=[N+]([O-])c1cccc(Nc2nc(Cl)nc(Cl)n2)c1`, the “hERG current change (%, negative = inhibition) at 10uM” value amounted to 14.4%.

For the molecule `O=C1c2cccc3cccc(c23)C(=O)N1/N=C/c1c(O)n(-c2ccccc2)c(=O)[nH]c1=O`, the “hERG current change (%, negative = inhibition) at 10uM” value was -3.66%.

For `COc1cc(Nc2ccc(S(N)(=O)=O)cc2)c([N+](=O)[O-])nc1[N+](=O)[O-]`, the “hERG current change (%, negative = inhibition) at 10uM” value is given as 17.8%.

With `CC(C)C(=O)N(Cc1ccc2c(c1)OCO2)Cc1ccccn1.Cl`, the “hERG current change (%, negative = inhibition) at 10uM” value is given as -7.53%.

With `Cc1ccc(-c2nc3ccccc3c(=O)o2)cc1`, the “hERG current change (%, negative = inhibition) at 10uM” value was found to be 21.1%.

With `CCCn1c(SC(C)C(=O)O)nc2ccccc21` (stereo not drawn), the “hERG current change (%, negative = inhibition) at 10uM” value was -18.9%.

Turning to `Fc1cccc(CN2CCSCC2)c1`, the “hERG current change (%, negative = inhibition) at 10uM” value turned out to be 19%.

For the molecule `CCOC(=O)C1CCCN(S(=O)(=O)c2ccc(S(N)(=O)=O)cc2)C1` (stereo not drawn), the “hERG current change (%, negative = inhibition) at 10uM” value is listed as 10.9%.

As for `CCOc1ccccc1N1CCN(CC(=O)Nc2ncc(C)s2)CC1`, the “hERG current change (%, negative = inhibition) at 10uM” value is reported as -4.05%.

For `S=C1NC(c2ccccc2)=NCN1c1ccccc1`, the “hERG current change (%, negative = inhibition) at 10uM” value amounted to 3.7%.

On to `COc1ccc(C(=O)c2ccccc2)c(O)c1`, for which the “hERG current change (%, negative = inhibition) at 10uM” value was -12.9%.

For the molecule `Cc1oc2cc(O)ccc2c(=O)c1N1C(=O)c2ccccc2C1=O`, the “hERG current change (%, negative = inhibition) at 10uM” value was -9.01%.

As for `O=c1c(Cc2ccc(Cl)cc2Cl)c(O)ccn1Cc1ccncc1`, the “hERG current change (%, negative = inhibition) at 10uM” value came to 1.25%.

On to `O=[N+]([O-])c1ccc2c(OCc3nnc(-c4ccccc4Br)o3)ncnc2c1`, for which the “hERG current change (%, negative = inhibition) at 10uM” value is reported as -74.1%.

As to `COc1cc(/C=N/N2CCN(C3c4ccccc4-c4ccccc43)CC2)cc(OC)c1OC`, the “hERG current change (%, negative = inhibition) at 10uM” value is -7.37%.

On to `Cc1ccc(C(=O)NCC(=O)OCCCOC(=O)CNC(=O)c2ccc(C)c(C)c2)cc1C`, for which the “hERG current change (%, negative = inhibition) at 10uM” value is recorded as -28%.

In the case of `Cc1ccc(S(=O)(=O)Nc2cccc(C(=O)NCCN3CCOCC3)c2)cc1F`, the “hERG current change (%, negative = inhibition) at 10uM” value is on record as -1.9%.

For `CN1CCN(C(c2ccc(C(F)(F)F)cc2)c2ccc3cccnc3c2O)CC1` (stereo not drawn), the “hERG current change (%, negative = inhibition) at 10uM” value was -40.4%.

Turning to `CCOC(=O)c1ccc(NS(=O)(=O)c2ccc3[nH]c(=O)[nH]c3c2)cc1`, the “hERG current change (%, negative = inhibition) at 10uM” value came to 7.47%.

With `CC1CCC2(CC1)NC(=O)N(CC(=O)NCCc1ccc(F)cc1)C2=O` (stereo not drawn), the “hERG current change (%, negative = inhibition) at 10uM” value is recorded as -10.1%.

`Cc1ccc(C(=O)Nc2nnc(CC(=O)N/N=C/c3ccncc3)s2)cc1`: the “hERG current change (%, negative = inhibition) at 10uM” value came to 19.9%.

Regarding `CCOC(=O)/C(=N\Nc1cc(Cl)ccc1Cl)N1CCOCC1`, the “hERG current change (%, negative = inhibition) at 10uM” value came out at 14.8%.

In the case of `O=C(NCc1ccccc1)c1cccc(NS(=O)(=O)c2cccc3cccnc23)c1`, the “hERG current change (%, negative = inhibition) at 10uM” value turned out to be 6.09%.

As for `O=C(Nc1ccc(-c2nc3ccccc3o2)cc1)c1ccc(N2C(=O)C3C4C=CC(C4)C3C2=O)cc1` (stereo not drawn), the “hERG current change (%, negative = inhibition) at 10uM” value was 3.26%.

Regarding `CCOC(=O)/C(=C\Nc1ccccc1C(F)(F)F)Sc1ncc(C(F)(F)F)cc1Cl`, the “hERG current change (%, negative = inhibition) at 10uM” value is 12.3%.

As for `O=C(NCC1CCCO1)c1cccs1` (stereo not drawn), the “hERG current change (%, negative = inhibition) at 10uM” value is given as 4.89%.

As for `O=C1c2cccc3c(O)ccc(c23)C(=O)N1Cc1ccccc1`, the “hERG current change (%, negative = inhibition) at 10uM” value was found to be 2.96%.

Regarding `Cc1ccsc1CNCc1cc(Cl)ccc1O.Cl`, the “hERG current change (%, negative = inhibition) at 10uM” value is -16.6%.

For `COc1cccc(NC2=Nc3cccc4cccc2c34)c1`, the “hERG current change (%, negative = inhibition) at 10uM” value is listed as -35.9%.

Regarding `CC1CC(NS(=O)(=O)c2cccs2)CC(C)(C)C1` (stereo not drawn), the “hERG current change (%, negative = inhibition) at 10uM” value stood at 4.96%.

For the molecule `O=c1c(NCCc2ccc(Cl)cc2)c(-c2ccccc2)c1=O`, the “hERG current change (%, negative = inhibition) at 10uM” value came out at 5.81%.

With `CCn1c(COc2ccc3ccccc3c2C)nnc1SCC(=O)Nc1cccc(C(=O)O)c1`, the “hERG current change (%, negative = inhibition) at 10uM” value is -22.3%.

Consider `COc1ccc(CNC(=O)CN(C(=O)c2csnn2)c2cccc3c2CCCC3)cc1`, for which the “hERG current change (%, negative = inhibition) at 10uM” value is -14.9%.

`CC(C(=O)NCC1(c2ccccc2)CCCC1)N1CCCC1.Cl` (stereo not drawn): the “hERG current change (%, negative = inhibition) at 10uM” value is reported as -9.9%.

For the molecule `CCOc1ccc(NC(=O)CN(C)C(=O)COc2cccc3c2OC(C)(C)C3)cc1OCC`, the “hERG current change (%, negative = inhibition) at 10uM” value is on record as -6.68%.

For `CCC1(CC)Cc2ccccc2C(CC(=O)N2CCOCC2)=N1.O=S(=O)(O)O`, the “hERG current change (%, negative = inhibition) at 10uM” value is -9.43%.

Take `COc1cc(/C=N/NC(=O)c2ccccc2O)ccc1OCC(=O)Nc1ccccc1`: the “hERG current change (%, negative = inhibition) at 10uM” value turned out to be 34.6%.

As for `COCCn1c(-c2ccc(Br)cc2)csc1=Nc1cccnc1`, the “hERG current change (%, negative = inhibition) at 10uM” value was -14.2%.

In the case of `CCOC(=O)C1CCCN(C(=O)c2sc3nc(-c4ccc(OC)cc4)cn3c2C)C1` (stereo not drawn), the “hERG current change (%, negative = inhibition) at 10uM” value is listed as -55.4%.

On to `CCc1cc(C(=O)c2ccc(OC)cc2)c(NC(=O)CN2CCCC2)s1`, for which the “hERG current change (%, negative = inhibition) at 10uM” value is recorded as -12.4%.

For the molecule `Cc1ccc(C(=O)c2ccccc2C(=O)OCC(=O)N2C(C)CCCC2C)cc1` (stereo not drawn), the “hERG current change (%, negative = inhibition) at 10uM” value is -17.6%.

On to `COC(=O)C(C)(C)ONC(=O)Nc1ccccc1Cl`, for which the “hERG current change (%, negative = inhibition) at 10uM” value was 27.5%.

`COc1ccc(N(CC(=O)N2CCN(c3ccccc3F)CC2)S(=O)(=O)c2ccc(C)cc2)cc1`: the “hERG current change (%, negative = inhibition) at 10uM” value is reported as -1.28%.

Consider `CC(NC(=O)NC(N)=O)(C(F)(F)F)C(F)(F)F`, for which the “hERG current change (%, negative = inhibition) at 10uM” value is reported as -2.43%.

Regarding `C=CCNC(=O)CCCOc1ccc(C)cc1`, the “hERG current change (%, negative = inhibition) at 10uM” value was -1.82%.

`CC1(C)CC2(CCCN(CC(O)(c3ccccc3)c3ccccc3)C2)CCO1.Cl` (stereo not drawn): the “hERG current change (%, negative = inhibition) at 10uM” value is 2.05%.

`CCOC(=O)C(=O)NNc1cccc(C)c1C`: the “hERG current change (%, negative = inhibition) at 10uM” value amounted to 13%.

On to `COc1cccc(/C=N/NC(=S)Nc2cccc(C(=O)O)c2)c1`, for which the “hERG current change (%, negative = inhibition) at 10uM” value was 23.8%.

On to `CCN1CCCC1CNS(=O)(=O)c1cccc(C(F)(F)F)c1.Cl` (stereo not drawn), for which the “hERG current change (%, negative = inhibition) at 10uM” value worked out at 15.7%.

Regarding `O=C(NC1CCCCC1)C(=S)NCCc1ccccc1`, the “hERG current change (%, negative = inhibition) at 10uM” value was -4.12%.

With `CCCCC(=O)N1CCN(c2nc3ccc(Br)cc3s2)CC1`, the “hERG current change (%, negative = inhibition) at 10uM” value was -69.4%.

Turning to `COc1ccc(N=Nc2c(C)[nH][nH]c2=O)cc1`, the “hERG current change (%, negative = inhibition) at 10uM” value was determined as 31.8%.

On to `CCOc1ccc(NC(=S)N2CCN(c3ccc(N4CCOCC4)nn3)CC2)cc1`, for which the “hERG current change (%, negative = inhibition) at 10uM” value is given as -29.8%.

Take `O=C(NCCN1C(=O)S/C(=C/c2cccnc2)C1=O)C1=NN(c2ccccc2)C(=O)CC1`: the “hERG current change (%, negative = inhibition) at 10uM” value is reported as -40.2%.

For the molecule `Cc1cc(C(=O)c2ccc3ccccc3c2)c(C)o1`, the “hERG current change (%, negative = inhibition) at 10uM” value turned out to be 2.09%.

Turning to `CCOC(=O)c1ccccc1NC(=O)c1cccs1`, the “hERG current change (%, negative = inhibition) at 10uM” value is given as 9.27%.

On to `Cc1cccc(N(C)S(=O)(=O)c2ccc3c(c2)CCC(=O)N3)c1`, for which the “hERG current change (%, negative = inhibition) at 10uM” value is -21.7%.
